Molecules are shown by their SMILES. The whole screen tested about 310,000 compounds, of which about 14,000 (4.5%) showed an effect of 50% or more. The effect is printed as a negative number. The list shows a part of the results.

The record followed here is PMC4336329 (PLoS ONE, 2015).
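Also: peak tail current of the secondary pulse compared with the same well before compound.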

This experiment deals with human ether-à-go-go-related gene (hERG) potassium channel (human, UniProt Q12809). The experiment is described as follows: primary screen, population patch clamp on CHO cells stably expressing hERG.
Chain of human ether-à-go-go-related gene (hERG) potassium channel (Q12809 whole entry, looked up): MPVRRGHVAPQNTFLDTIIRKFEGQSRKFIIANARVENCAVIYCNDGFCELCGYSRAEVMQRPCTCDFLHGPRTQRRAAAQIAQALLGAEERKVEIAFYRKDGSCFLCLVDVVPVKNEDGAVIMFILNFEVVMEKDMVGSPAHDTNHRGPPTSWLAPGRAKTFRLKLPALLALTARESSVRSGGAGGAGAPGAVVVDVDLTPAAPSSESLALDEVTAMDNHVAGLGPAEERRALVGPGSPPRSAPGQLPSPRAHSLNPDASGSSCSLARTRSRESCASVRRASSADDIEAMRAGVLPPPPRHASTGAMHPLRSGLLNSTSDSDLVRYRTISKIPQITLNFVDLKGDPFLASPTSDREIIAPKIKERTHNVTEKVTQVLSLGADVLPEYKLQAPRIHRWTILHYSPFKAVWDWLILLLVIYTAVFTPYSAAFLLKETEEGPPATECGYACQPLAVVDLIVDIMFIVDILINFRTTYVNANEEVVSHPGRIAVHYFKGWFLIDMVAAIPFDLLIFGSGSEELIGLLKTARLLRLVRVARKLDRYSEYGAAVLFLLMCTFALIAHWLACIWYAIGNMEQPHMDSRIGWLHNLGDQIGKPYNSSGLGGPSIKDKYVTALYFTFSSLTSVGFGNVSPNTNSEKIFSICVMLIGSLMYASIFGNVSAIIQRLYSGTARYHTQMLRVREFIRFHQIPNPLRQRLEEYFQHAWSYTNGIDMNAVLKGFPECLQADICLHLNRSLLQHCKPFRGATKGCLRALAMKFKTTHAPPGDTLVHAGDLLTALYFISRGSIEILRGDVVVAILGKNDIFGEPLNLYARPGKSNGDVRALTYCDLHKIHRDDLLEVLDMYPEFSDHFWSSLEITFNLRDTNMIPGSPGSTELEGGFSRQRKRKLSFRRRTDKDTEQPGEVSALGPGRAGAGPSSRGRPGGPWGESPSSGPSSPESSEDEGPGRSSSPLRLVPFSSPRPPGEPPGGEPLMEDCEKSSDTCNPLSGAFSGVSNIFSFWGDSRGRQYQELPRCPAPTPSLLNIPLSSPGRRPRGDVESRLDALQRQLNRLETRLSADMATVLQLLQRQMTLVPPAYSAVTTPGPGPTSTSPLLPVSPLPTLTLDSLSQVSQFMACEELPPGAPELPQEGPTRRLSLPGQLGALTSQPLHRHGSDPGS
Regarding `CN(C)CCN(C(=O)c1cccc(N2C(=O)CCC2=O)c1)c1nc2ccc(Br)cc2s1.Cl`, the “hERG current change (%, negative = inhibition) at 10uM” value is reported as -48.7%.
For `O=C(NCCCN1CCCC1=O)C(=O)NCC1OCCN1S(=O)(=O)c1ccc(Cl)cc1` (centres unmarked), the “hERG current change (%, negative = inhibition) at 10uM” value is 5.03%.
In the case of `Cc1ccc2c(C)nc(SC(C(=O)c3ccccc3)c3ccccc3)nc2c1` (centres unmarked) it was 4.47%; in that of `Cc1ccc(O)c(NC(=O)CN(C)S(=O)(=O)c2ccc(Cl)cc2)c1`, -14.2%; in that of `N/C(Cc1cccc2ccccc12)=N\OC(=O)COc1ccccc1`, 4.75%.
In the case of `COc1ccccc1C(=O)Nc1ccnn1C1CCN(CCCc2ccccc2)CC1` it was -78.3%; in that of `COc1cccc(C2N(c3cccc(Cl)c3)C(=O)C3CCCN32)c1OC` (centres unmarked), -11.9%.
Under `Cc1cccc(NC(=O)c2cnc3sccn3c2=O)c1` stands 2.35%; under `CC(C)CNC(=O)NC1(C(F)(F)F)Oc2ccccc2O1`, 14.6%; under `CCN1C(=O)[C@@H]2[C@@H](c3ccc(-c4ccc5c(c4)OCO5)cc3)N3CCCC[C@@]3(C(=O)OC)[C@@H]2C1=O.O=C(O)C(F)(F)F`, 21%.
`O=C(CCN1C(=O)c2ccccc2C1=O)NC(=S)Nc1cccc(Cl)c1`: the “hERG current change (%, negative = inhibition) at 10uM” value is recorded as -0.748%.
For the molecule `CC(C)(C)c1ccc(-c2nnc(SCC(=O)Nc3sc4c(c3C#N)CCCC4)o2)cc1`, the “hERG current change (%, negative = inhibition) at 10uM” value worked out at 8.69%.
As for `O=C(Nc1cccc(-c2cccc(F)c2)c1)C1CCN(Cc2ccco2)CC1`, the “hERG current change (%, negative = inhibition) at 10uM” value is -67.5%.
Under `Cc1cc(O)c(/C=N/Nc2ccccc2)c(=O)o1` stands -0.994%; under `Br.CCOc1ccc2c(c1)nc(SCC(=O)c1cccs1)n2C`, -5.97%; under `CNc1nccc(-c2ccc(Cl)cc2)c1C#N`, -6.14%.
Turning to `CCOC(=O)Cc1csc(NC(=O)CSc2nnc(C(C)C)n2C)n1`, the “hERG current change (%, negative = inhibition) at 10uM” value is on record as -1.3%.
`CSc1ccc(CN2CCN(Cc3ccccc3Cl)CC2)cc1`: the “hERG current change (%, negative = inhibition) at 10uM” value is -26.8%.
Take `CN1C(=O)/C(=C\c2cc(N=Nc3ccccc3)ccc2O)SC1=S`: the “hERG current change (%, negative = inhibition) at 10uM” value is 8.36%.
Under `CCCCCCOC(=O)c1ccc(NC(=O)c2cc(OC)c(OC)c(OC)c2Br)cc1` stands 5.84%.
Regarding `c1ccc2c(c1)-c1cccc3cccc-2c13`, the “hERG current change (%, negative = inhibition) at 10uM” value is reported as 24.4%.
In the case of `O=C(OCc1nnc(-c2ccccc2)o1)c1cc(=O)c2ccccc2o1` it was 14.2%; in that of `Cc1nn(CCCC(=O)Nc2cc(Oc3ccc(F)cc3)cc([N+](=O)[O-])c2)c(C)c1[N+](=O)[O-]`, -7.37%.
